Laboratory results as given in patent US20150250167A1, “COMPOSITION FOR NOXIOUS ORGANISMS-CONTROLLING AGENT AND METHOD FOR USING THE SAME” (priority 2001, published 2015).

How the values were obtained:
[1] = tested on: Diamondback Moth (Plutella xyloxtella); assay: Control of diamondback moth on cabbage by soil treatment, number of parasitic insects; assay type: in vivo; conditions: 5 mg ai/hill, 21 days after transplanting
Cutworm = assay: Test for the effect against cutworm on beet, drench, number of injured hills per 100 hills; assay type: in vivo; conditions: 15 g ai/10a
[2] = tested on: Citrus Yellow Thrips (Frankliniella occidentalis); assay: Control of citrus yellow thrips on egg plant by combined use with natural enemy pesticide, number of thrips; assay type: in vivo; conditions: 100 ppm, spray
Aphid = assay: Control of aphid on cabbage by soil treatment, number of parasitic insects; assay type: in vivo; conditions: 5 mg ai/hill, 21 days after transplanting
Rice Blast = assay type: in vivo; conditions: 10.0 g ai/10a; submerged application
[3] = tested on: Rice Leafroller (Cnaphalocrocis medinalis); assay: Control of rice leafroller by submerged application to main paddyfield, percentage of injured leaves; assay type: in vivo; conditions: 10.0 g ai/10a
[4] = tested on: Bulrush (Scirpus juncoides Roxb.); assay: Herbicidal effect on bulrush by submerged application to main paddyfield; assay type: in vivo; parameters: key: 0 means “no effect”; 10 means “complete withering”; conditions: 10.0 g ai/10a; four weeks after the treatment
rice plant = conditions: 10.0 g ai/10a; four weeks after the treatment
[5] = tested on: Barnyard Grass (Echinochloa crus-Galli); assay: Herbicidal effect on barnyard grass by submerged application to main paddyfield; assay type: in vivo; parameters: key: 0 means “no effect”; 10 means “complete withering”; conditions: 10.0 g ai/10a; four weeks after the treatment

Compound | Number of parasitic insects per 30 hills, Diamondback moth ([1]; plant foot treatment) | Number of parasitic insects per 30 hills, Diamondback moth ([1]; pre-transplanting treatment) | Number of parasitic insects per 30 hills, Diamondback moth ([1]; pricking-in hole treatment) | Number of parasitic insects per 30 hills, Diamondback moth ([1]; soil incorporation) | Number of injured hills per 100 hills, After 60 days (Cutworm) | Number of injured hills per 100 hills, After 90 days (Cutworm) | Number of injured hills per 100 hills, After 120 days (Cutworm) | Number of parasitic insects per 20 leaves, After 60 days [2] | Number of parasitic insects per 20 leaves, After 90 days [2] | Number of parasitic insects per 20 leaves, After 120 days [2] | Number of parasitic insects per 30 hills, Aphid (Aphid; plant foot treatment) | Number of parasitic insects per 30 hills, Aphid (Aphid; pre-transplanting treatment) | Number of parasitic insects per 30 hills, Aphid (Aphid; pricking-in hole treatment) | Number of parasitic insects per 30 hills, Aphid (Aphid; soil incorporation) | Areal rate of disease spot (%) After 60 days (Rice Blast) | Percentage of injured leaves (%) After 50 days [3] | Herbicidal effect fulrush [4] | Phytotoxicity rice (rice plant) | Herbicidal effect barnyard grass [5]
Cc1cc(OC(F)(F)F)ccc1NC(=O)c1cccc(F)c1C(=O)NC(C)C [Compound 54] | 2 | 1 | 3 | 1 | 0 | 8 | 19 | 18 | 25 | 61 | 463 | 487 | 499 | 478 |  |  |  |  | 
CSCC(C)(C)NC(=O)c1c(I)cccc1C(=O)Nc1ccc(C(F)(C(F)(F)F)C(F)(F)F)cc1C [Compound 129, N^2-(1,1-dimethyl-2-methylthioethyl)-3-iodo-N^1-{2-methyl-4-[1,2,2,2-tetrafluoro-1-(trifluoromethyl)ethyl]phenyl}-phthalamide] | 1 | 2 | 3 | 2 | 0 | 10 | 22 | 19 | 29 | 51 | 481 | 402 | 397 | 455 | 8.1% | 0.15% | 0 | 0 | 0
Cc1cc(OC(F)(F)C(F)C(F)(F)F)ccc1NC(=O)c1cccc(I)c1C(=O)NC(C)C (centres unmarked) [Compound 47] | 2 | 4 | 1 | 3 | 0 | 9 | 21 | 21 | 27 | 52 | 511 | 452 | 477 | 438 |  |  |  |  | 
Cc1cc(OCC(F)(F)C(F)F)ccc1NC(=O)c1cccc(I)c1C(=O)NC(C)C [Compound 46] | 2 | 1 | 3 |  | 0 | 8 | 20 | 20 | 34 | 57 | 469 | 479 | 447 |  |  |  |  |  | 
Cc1cc(OC(F)F)ccc1NC(=O)c1cccc(I)c1C(=O)NC(C)C [Compound 45] |  |  |  |  | 0 | 9 | 23 | 18 | 29 | 59 |  |  |  |  |  |  |  |  | 
